Results: PubChem BioAssay AID1458 (National Center for Advancing Translational Sciences (NCATS), 2008)
In all, about 210,000 compounds went through this assay and about 5,900 (2.8%) were called active. Inconclusive results, whose numbers are uncertain, are shown with a selection of clear calls. The call rests on the fitted dose curve; in most records, active means well fitted activation curve with a large enough effect; inconclusive means small, poorly fitted or top-dose-only effect; inactive means no such curve, though single readings can be large or run the other way. Potencies beside an inconclusive call are fits to weak or partial responses and may not hold up.

Assay: qHTS Assay for Enhancers of SMN2 Splice Variant Expression; further: nearly all actives have a fitted effect of over 55% in size; on activity change, positive = activation: % of control where 0% means no effect
Settings: HEK293 SMN2-luciferase splicing reporter, luminescence, 30-36 h; activity change, positive = activation: at 46.1 µM (top of the series)
In short: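 qHTS luciferase splicing reporter: luminescence rises when SMN2 exon 7 is included in transfected HEK293 cells. Compound exposure lasted 30-36 h at 37C, with 4.5 mM final sodium butyrate as control, followed by a ONE-Glo read.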
Potency means the concentration at half of the fitted maximal effect; tags describe the fitted curve by direction and shape.

Compound | Potency | activity change, positive = activation
CN1C(=O)/C(=C/C=C2\SCCN2C)SC1=S | active: 2.51 µM | –
O=C(NCc1cccc(Cl)c1)c1ccc2c(c1)SC1=NS(=O)(=O)CCN12 | inconclusive: 6.31 µM [activator, partial curve, poor fit] | –
O=C(NC(Cc1c[nH]c2ccccc12)C(=O)N/N=C/c1cccnc1)c1cccs1 (configuration not stated) | active: 25.1 µM | –
CCOC(=O)N1CCC2(CC1)C(C#N)=C(N)Oc1c2sc2nc(C)cc(C)c12 | inconclusive: 8.91 µM [activator, partial curve, poor fit] | –
Cc1ccnc(NC(=O)c2ccc(Cl)c(NC(=O)CCc3ccccc3)c2)c1 | inconclusive: 3.98 µM [activator, single point] | –
O=C(Nc1ccc2c(c1)CCC2)c1cccc(F)c1 | active: 11.2 µM | –
COC(=O)CSc1nc(N)c(NC(=O)c2ccc(OC)c(OC)c2)c(=O)[nH]1 | inconclusive: 2.51 µM [activator, partial curve, poor fit] | –
Cc1cc(C)cc(Nc2nc3ccccc3n3cnnc23)c1 | inactive | –
O=C(CN1CCOCC1)N/N=C/C(Br)=C\c1ccccc1 | inconclusive: 5.01 µM [activator, partial curve] | –
Cc1occc1-c1nc(-c2ccncc2)no1 | inconclusive: 7.94 µM [activator, full curve, poor fit] | –
CCCCCSc1nnc2c(n1)OC(CC)Nc1ccc(Br)cc1-2 (configuration not stated) | inactive | –
CC(=O)CSc1nc2ccc(Nc3nc(N4CCOCC4)nc(N4CCOCC4)n3)cc2s1 | active: 25.1 µM | –
O=C(CSc1nc2c(cnn2-c2ccc(F)cc2)c(=O)[nH]1)N1CCCCCC1 | inconclusive: 6.31 µM [activator, single point] | –
CCOc1ccc(S(=O)(=O)c2cn(C)c3ccccc3c2=O)cc1 | inactive | –
Cc1nnc2n(-c3ccccc3)c(=O)c3c4c(sc3n12)CC(C)CC4 (configuration not stated) | active: 22.4 µM | –
O=C(Nc1cccc(-c2nc3ccccc3s2)c1)c1cccs1 | inconclusive: 0.141 µM [activator, full curve, poor fit] | –
O=c1cc(C(F)(F)F)[nH]c2c(C(F)(F)F)cccc12 | inactive | –
Cc1cccc(N2CCN(C(=O)c3ccncc3)CC2)c1C | inconclusive: 35.5 µM [activator, partial curve, poor fit] | –
CC1(C)CC(=O)c2sc(NC(=O)c3ccccc3)nc2C1 | active: 12.6 µM | –
CCn1c(SCC(=O)NCc2cccs2)nnc1-c1cccs1 | inconclusive: 0.02 µM [activator, full curve, poor fit] | –
CC(C)N(CCNCC(O)COc1ccc(C(C)(C)c2ccccc2)cc1)C(C)C (configuration not stated) | inactive | –
COC(=O)c1ccc(C2c3c(oc4ccccc4c3=O)C(=O)N2c2nc(C)c(C(=O)OC)s2)cc1 (configuration not stated) | inactive | –
CCN1C(=O)c2cccc3cccc1c23 | inconclusive: 20 µM [activator, partial curve, poor fit] | –
c1csc(-c2nc3ccccc3[nH]2)c1 | active: 12.6 µM | –
CCn1c(C(=O)NCc2ccc(OC(C)C)cc2)cc2oc3ccccc3c21 | inconclusive: 25.1 µM [activator, single point] | –
COc1ccccc1NC(=O)CSc1nnc(-c2ccncc2)o1 | inconclusive: 14.1 µM [activator, partial curve, poor fit] | –

Compound | Potency | activity change, positive = activation
COCCN1Cc2cccc(C(=O)N3CCN(c4ccccc4)CC3)c2C1=O | inconclusive: 4.47 µM [activator, single point] | –
O=C(OCc1ccc(Cl)c(Cl)c1)c1ccccn1 | inactive | –
COCCNc1oc(-c2ccc(F)cc2)nc1C#N | inactive | –
c1ccc(NCc2nc(-c3ccccc3)no2)cc1 | inconclusive: 35.5 µM [activator, single point] | –
COc1cc(/C=N/Nc2nc3ccccc3s2)ccc1OC(=O)c1ccccc1F | inconclusive: 25.1 µM [activator, single point] | –
Cc1ccc(NC(=O)Cn2cc3c(n2)CCCC3)c(Cl)c1 | inactive | –
Cc1ccc(C)c(C(=O)NCc2ccncc2)c1 | inconclusive: 0.0089 µM [activator, full curve] | –
COc1ccc(Cc2n[nH]c(=S)n(N)c2=O)cc1 | inactive | –
C/C(Cl)=C\Cn1c(N2CCCCCC2)nc2c1c(=O)n(C)c(=O)n2C | inconclusive: 35.5 µM [activator, single point] | –
CCOc1ccc(Cc2nc(-c3nonc3N)no2)cc1OCC | inactive | –
O=C(CCCc1ccccc1)Nc1ccc2c(c1)OCCO2 | active: 6.31 µM | –
CCOc1cc(N2CCOCC2)c(OCC)cc1NC(=O)c1ccc(C)s1 | inconclusive: 35.5 µM [activator, partial curve, poor fit] | –
O=C(COc1ccc(Br)cc1Cl)Nc1ncn[nH]1 | inconclusive: 2.82 µM [activator, full curve] | –
N#Cc1ncc(C(F)(F)F)cc1Sc1ccccc1N | inconclusive: 6.31 µM [activator, single point] | –
Nc1ccccc1N=Nc1c(S(=O)(=O)O)cc2cc(S(=O)(=O)O)cc(O)c2c1O | – | inactive: -1.23% [at 9.22 µM]
O=c1c2cn[nH]c2[nH]c(=S)n1-c1ccccc1 | inactive | –
Cc1nn(-c2ccccc2)c(-n2cccc2)c1C(=O)NCCc1ccc(Cl)cc1 | inactive | –
Cn1nnnc1SCCNCc1ccncc1 | inconclusive: 5.62 µM [activator, single point] | –
O=C1C2C3C=CC(C3)C2C(=O)N1/N=C/c1cn(Cc2ccccc2)c2ccccc12 (configuration not stated) | inactive | –
CC1(C)Cc2c(c(N3CCOCC3)nc3snc(N)c23)CO1 | inconclusive: 35.5 µM [activator, single point] | –
c1coc(CNc2nc(-c3cccs3)cs2)c1 | inconclusive: 20 µM [activator, single point] | –
CC(=O)Nc1ccc(NC(=O)C(=O)c2cn(CC(=O)N3CCCCC3)c3ccccc23)cc1 | inactive | –
CN(C)c1ccc(-c2nccc(NCc3ccccc3)n2)cc1 | inconclusive: 0.398 µM [activator, single point] | –
O=C(CCSc1ccccc1)Nc1ccccc1C(=O)N1CCCC1 | inconclusive: 2.24 µM [activator, partial curve] | –
CN(C)c1ccc(/C=N/NC(=O)c2cccc(C(=O)N/N=C/c3ccc(N(C)C)cc3)n2)cc1 | inactive | –
O=C(CSc1nccn1-c1ccccc1)NO | inactive | –

Compound | Potency | activity change, positive = activation
O=c1[nH]c(CSc2ccccn2)nc2ccccc12 | active: 11.2 µM | –
COC(=O)COc1ccc2oc(-c3ccc(OC)cc3)cc(=O)c2c1 | inactive | –
Cc1ccc(NC(=O)CN(C)S(=O)(=O)c2cccc3cccnc23)cc1 | inactive | –
CCOC(=O)c1ccc(N/C=C2\CCCCC2=O)cc1 | inconclusive: 17.8 µM [activator, single point] | –
Cc1ccc(-c2nc3ncccn3c2Nc2ccc3c(c2)OCCO3)o1 | inconclusive: 0.891 µM [activator, full curve, poor fit] | –
O=C(Nc1ccccc1)Nc1ccc2snnc2c1 | active: 11.2 µM | –
Cc1cc(C)c2nc(N3CCC(C(=O)N4CCN(C(=O)c5ccco5)CC4)CC3)sc2c1 | inactive | –
O=c1cc(-c2ccc(O)cc2)oc2cc(O)ccc12 | inconclusive: 35.5 µM [activator, single point] | –
COC(=O)CCC(=O)NC(=S)Nc1ccc(S(=O)(=O)N2CCCC2)cc1 | inactive | –
N[C@H](CCC(=O)NCC(=O)O)C(=O)O | inactive | –
Cc1ccc(S(=O)(=O)Nc2cc(C(F)(F)F)ccc2N2CCOCC2)cc1 | inconclusive: 0.794 µM [activator, full curve, poor fit] | –
Cc1ccc2oc3c(c(=O)c2c1)C(c1ccccc1F)N(CCCN(C)C)C3=O (configuration not stated) | inconclusive: 11.2 µM [activator, partial curve] | –
CCOC(=O)c1ccc2[nH]c3c(c2c1)CCCCC3=O | inconclusive: 20 µM [activator, partial curve, poor fit] | –
O=S(=O)(c1cccs1)N1CN(Cc2ccccc2)c2nc3ccccc3nc21 | inconclusive: 35.5 µM [activator, single point] | –
COc1cc(-c2nc3cnccn3c2Nc2ccc(C)cc2)ccc1O | active: 17.8 µM | –
COCCCNC(=S)NC(=O)c1ccccc1 | inconclusive: 1 µM [activator, partial curve, poor fit] | –
COc1ccc(N2CCN(C(=O)c3ccc(CS(=O)(=O)c4ccc(OC)cc4)o3)CC2)cc1 | inactive | –
CCCOc1ccc2c3c(c(=O)oc2c1OCCC)CCCC3 | inconclusive: 25.1 µM [activator, single point] | –
CCCCOC(=O)Nc1ccc(C(C)C)cc1 | active: 14.1 µM | –
CCCc1cc(=O)[nH]c(SC(CC)C(=O)Nc2ccccc2C#N)n1 (configuration not stated) | inconclusive: 0.141 µM [activator, full curve] | –
Cc1nn(C)cc1/C=N/n1nnnc1N | inactive | –
O=c1c2c3c(sc2n2cnnc2n1Cc1ccccc1)CN(Cc1ccccc1)CC3 | inconclusive: 0.447 µM [activator, full curve] | –
COCCN1CN(S(=O)(=O)c2ccccc2)c2nc3ccccc3nc21 | inconclusive: 0.891 µM [activator, full curve, poor fit] | –
CC/C=C/C(=O)N1CC2(CC(c3cccc(NC(=O)c4ccccc4)c3)=NO2)C[C@@H]1C(N)=O (some centres not stated) | inconclusive: 3.55 µM [activator, partial curve] | –
COc1ccc2oc(=O)c(-c3csc(Nc4cccc(O)c4)n3)cc2c1 | inconclusive: 35.5 µM [activator, single point] | –
